# Article PMC4336329 (PLoS ONE, 2015)
# Out of some 310,000 compounds screened, about 14,000 (4.5%) showed an effect of 50% or more. The effect is printed as a negative number. Some of the results follow.
# Target: human ether-à-go-go-related gene (hERG) potassium channel (human, UniProt Q12809)
# Experiment: primary screen, population patch clamp on CHO cells stably expressing hERG
# 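Note: peak tail current of the secondary pulse compared with the same well before compound.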
# Sequence of human ether-à-go-go-related gene (hERG) potassium channel (Q12809 whole entry, looked up): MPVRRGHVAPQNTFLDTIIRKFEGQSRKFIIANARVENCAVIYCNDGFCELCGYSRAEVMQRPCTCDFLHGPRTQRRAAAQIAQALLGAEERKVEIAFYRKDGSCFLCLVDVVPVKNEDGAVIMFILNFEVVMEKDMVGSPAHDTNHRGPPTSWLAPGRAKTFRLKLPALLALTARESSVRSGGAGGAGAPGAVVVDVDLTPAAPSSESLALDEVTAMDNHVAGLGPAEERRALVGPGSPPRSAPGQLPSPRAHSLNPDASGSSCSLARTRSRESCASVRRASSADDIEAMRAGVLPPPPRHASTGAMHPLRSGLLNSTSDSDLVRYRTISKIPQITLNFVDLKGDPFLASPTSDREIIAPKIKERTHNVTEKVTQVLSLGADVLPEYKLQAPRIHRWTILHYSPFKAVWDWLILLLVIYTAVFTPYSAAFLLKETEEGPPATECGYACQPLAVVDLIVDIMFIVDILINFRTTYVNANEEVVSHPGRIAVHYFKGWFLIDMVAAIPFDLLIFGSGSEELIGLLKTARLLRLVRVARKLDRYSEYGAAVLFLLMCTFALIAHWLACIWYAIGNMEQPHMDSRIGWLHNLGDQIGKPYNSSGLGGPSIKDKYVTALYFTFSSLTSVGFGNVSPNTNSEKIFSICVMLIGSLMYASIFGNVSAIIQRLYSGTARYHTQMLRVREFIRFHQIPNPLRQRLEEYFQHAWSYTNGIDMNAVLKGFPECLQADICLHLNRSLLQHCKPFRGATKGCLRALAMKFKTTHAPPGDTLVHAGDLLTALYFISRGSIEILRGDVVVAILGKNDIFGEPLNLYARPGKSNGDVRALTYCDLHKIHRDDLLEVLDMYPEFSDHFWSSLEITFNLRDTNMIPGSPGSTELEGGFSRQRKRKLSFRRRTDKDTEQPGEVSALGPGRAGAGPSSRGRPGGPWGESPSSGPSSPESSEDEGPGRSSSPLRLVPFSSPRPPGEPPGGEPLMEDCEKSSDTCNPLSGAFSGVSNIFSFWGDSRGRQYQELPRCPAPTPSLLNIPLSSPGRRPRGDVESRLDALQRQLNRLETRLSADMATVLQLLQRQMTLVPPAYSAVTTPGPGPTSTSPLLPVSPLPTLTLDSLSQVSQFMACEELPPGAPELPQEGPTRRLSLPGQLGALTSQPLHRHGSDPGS
row,SMILES,"hERG current change (%, negative = inhibition) at 10uM [%]"
1,Cc1nnc(SCC(=O)N2CCN(S(=O)(=O)c3ccc(Cl)cc3)CC2)[nH]c1=O,15
2,CCOc1ccc(N2CC(C(=O)Nc3ccccc3N3CCOCC3)CC2=O)cc1 (stereo not drawn),-14.4
3,CC(=O)Nc1ccc(S(=O)(=O)NCCc2csc(C)n2)cc1,-12.6
4,CC1(C)CC(=O)C=C(NCCN2CCN(C(=O)Nc3ccc(Cl)c(Cl)c3)CC2)C1,-24
5,CCOc1ccccc1-c1nc(CN2CCCC2c2nccs2)c(C)o1 (stereo not drawn),-2.48
6,C=CCSc1nc(N)c2c(C)c(C)sc2n1,-24.1
7,Cc1ccc(CNC(=O)Cc2cn(C)c3ccccc23)cc1,16.5
8,Cc1cc2ncc(C(=O)N=CN(C)C)cn2n1,-7.59
9,CCOc1ccc(OCCSc2nc(-c3ccccc3)cc(=O)[nH]2)cc1,19.2
10,Cc1ccc(S(=O)(=O)NC(=O)Nc2c(C)cccc2C)cc1,13.5
11,CC12CN(S(=O)(=O)c3ccccc3)CC(C)(CN(S(=O)(=O)c3ccccc3)C1)C2,-11.5
12,O=C(Nc1c2c(nc3ccccc13)CCCC2)c1cccc([N+](=O)[O-])c1,-5.85
13,CCC(C)c1ccc(S(=O)(=O)N2CCN(c3ccccn3)CC2)cc1 (stereo not drawn),24.6
14,O=C(COC(=O)CNS(=O)(=O)c1ccc(F)c(F)c1F)NC1CCCC1,4.16
15,COc1ccc(OCCOCCN2CCOCC2)cc1,5.25
16,O=C(CN1CCNC(=O)C1)NCCc1ccc(Cl)cc1Cl,1.45
17,COc1ccc(-c2ccc(SCC(=O)NCc3ccco3)nn2)cc1,-8.73
18,CCC1CCCCN1C(=O)CSc1nc(N)cc(=O)[nH]1 (stereo not drawn),11.7
19,CC1(C)CC(=O)C=C(Nc2ccc(F)cc2F)C1,-3.73
20,CC(=O)Nc1ccc(NC(=O)c2ccc(Cn3cc(Cl)cn3)cc2)cc1,-1.45
21,Cc1cccc(OCCC(=O)NCC(c2ccccc2)N(C)C)c1 (stereo not drawn),2.88
22,CC(=O)c1sc(NC(=O)COc2ccc(Br)cc2)nc1C,2.18
23,Cc1ccccc1NS(=O)(=O)c1cc(C(=O)NCCC2=CCCCC2)ccc1Cl,-14.3

row,SMILES,"hERG current change (%, negative = inhibition) at 10uM [%]"
1,COc1ccc(C(=O)C[n+]2cccc(C)c2)cc1.[Br-],13
2,COc1ccc(CN2C(=O)CCCc3ccccc32)cc1,3.69
3,CC1CC(C)CN(C(=O)Nc2ccccc2F)C1 (stereo not drawn),22.9
4,c1ccc(-n2ncc3c2ncn2nc(CSc4nc5ccccc5s4)nc32)cc1,16
5,COc1ccc(C(=O)CCC(=O)Nc2cccnc2)cc1OC,17.9
6,COC(=O)Nc1ccc2c(c1)N(C(=O)CCN1CCN3CCCC3C1)c1ccccc1S2.Cl (stereo not drawn),-31.3
7,O=C(CCN1C(=O)c2ccccc2C1=O)NC(=S)Nc1ccccc1Cl,-1.16
8,COC(=O)Cn1c(O)c(N=NC(=O)CNC(=O)COc2cccc(C)c2)c2ccccc21,-30.1
9,O=C(CSc1nnc2ccccn12)NNC(=O)c1ccccc1,11.9
10,CCSc1cc(Cl)nc(N)n1,-4.05
11,COc1cc(C(=O)NCCCNc2nc3cc(C)cc(C)c3cc2C#N)cc(OC)c1OC,-22.9
12,O=C(CSCc1ccc(Br)cc1)Nc1ccc(S(=O)(=O)N2CCCCCC2)cc1,11.6
13,S=C(NCCc1ccccn1)Nc1ccccc1,17.5
14,Cc1ccc(N=Cc2nc(-c3ccco3)oc2O)cc1,-0.27
15,COc1ccc(OC)c(-c2cc(C(=O)N/N=C(\C)c3cccnc3)c3ccccc3n2)c1,-65.5
16,COC(=O)c1ccc2c(=O)[nH]c(CSc3nnc(C(F)(F)F)n3C)nc2c1,12.1
17,COC(=O)c1ccc(N2C(=O)c3cc(N4CCOCC4)c([N+](=O)[O-])cc3C2=O)cc1,3.52
18,CC1CCN(C(=O)Cn2c(=O)c3cccn3c3ccccc32)CC1,6.24
19,Cc1cc(C)cc(NC(=S)NC2CC3CCCC(C2)N3C2CC2)c1 (stereo not drawn),-67.3
20,COc1ccccc1CNC(=O)c1ccc(Cl)c(NC2=NC3CS(=O)(=O)CC3S2)c1 (stereo not drawn),4.06
21,COc1cc(/C=C2/NC(=O)N(CC(=O)Nc3ccc(C)cc3)C2=O)ccc1Oc1ccc([N+](=O)[O-])cn1,9.57
22,COc1cc(OC)cc(C(=O)NNC(=O)c2cc3c(s2)CCCC3)c1,40.9
23,N/C(=N\OCc1ccc([N+](=O)[O-])cc1)c1ccccn1,-9.21

row,SMILES,"hERG current change (%, negative = inhibition) at 10uM [%]"
1,Cc1nc(N)sc1N=Nc1ccc(F)cc1,7.02
2,COc1ccc(CNC(=O)CSCc2ccccc2Cl)cc1,-7.18
3,CN(C)C=O.N#Cc1c(N)nc2c3c(sc(=N)c2c1N)NC(=O)CC3c1ccccc1Cl (stereo not drawn),24.1
4,CCCC(C)NC(=O)c1cc(C(=O)OC)cc([N+](=O)[O-])c1 (stereo not drawn),-8.34
5,Cc1cc(Br)ccc1OCCCCN1CCC(C)CC1.O=C(O)C(=O)O,-67.9
6,COC(=O)Cc1csc(NC(=O)CSc2nnc3ccccn23)n1,19.4
7,COC(=O)c1ccc(C2=NOC(C)(c3sc(-c4ccccc4)nc3C)C2)cc1 (stereo not drawn),7.3
8,CCOc1cc(/C=C/c2nc3cc(C)c(C)cc3s2)ccc1OCC(=O)N1CCOCC1,0.659
9,O=C(NNC(=S)NC(=O)c1ccc(F)cc1)c1cccnc1,16
10,N/C(Cc1ccc(Cl)cc1)=N\OC(=O)c1cccc2ccccc12,3.95
11,Nc1ccccc1Sc1c[nH]c2ccccc12,5.21
12,O=S(=O)(c1ccc(Oc2ccc(Br)cc2)cc1)N1CCOCC1,-21.6
13,CC(C)CC(NC(=O)CC12CC3CC(CC(C3)C1)C2)C(=O)NC1=NCCS1 (stereo not drawn),-3.72
14,Cn1c(=O)c2c(nc(CN3CCOCC3)n2CCN2CCOCC2)n(C)c1=O,3.09
15,OCCN(C=NC1=NN(c2cccc(C(F)(F)F)c2)CC1)CCO,2.6
16,O=C(CCc1ccccc1)n1nc(-c2ccccc2)nc1NCc1ccco1,11.4
17,COc1ccc(S(=O)(=O)NNC(=O)C23CC4CC(CC(C4)C2)C3)cc1[N+](=O)[O-],-33.1
18,C=CCn1c(SCC(=O)NCCCC(=O)OCC)nc2scc(-c3ccco3)c2c1=O,-46.2
19,CCCOC(=O)Nc1c(C)cccc1C(C)C,-10.1
20,COCCNC(=O)c1ccc(CSc2nc3ccccc3s2)cc1,-0.171
21,COc1ccc(C2C(C(=O)NCCN3CCOCC3)c3ccccc3C(=O)N2C)cc1OC (stereo not drawn),18
22,O=C(NC(=S)N1CCN(c2c(Cl)cccc2[N+](=O)[O-])CC1)c1cccs1,-2.97
23,Cc1ccc(Sc2c(CO)c(-c3ccccc3)nn2C)cc1,1.92

row,SMILES,"hERG current change (%, negative = inhibition) at 10uM [%]"
1,COC(=O)COc1ccc(S(=O)(=O)NCc2ccncc2)cc1,-11.5
2,OCCN(CCO)c1nc2ccccc2[nH]1,10.5
3,Cc1ccc(-c2nn(Cc3ccccc3)cc2/C=C/C(=O)O)cc1C,25.8
4,COc1cc(C(=O)NC(=S)N2CCCCCC2)cc(OC)c1OC,15.2
5,Cc1cccc(NS(=O)(=O)c2cc3c(cc2C)NC(=O)CO3)c1,-37.1
6,CCNC(=O)NC(=O)C(C)Sc1nc2ccccc2n1CC(C)C (stereo not drawn),-12.9
7,CCN(CC)Cc1c(O)ccc2c(=O)c(-c3ccc4c(c3)OCCO4)coc12,4.84
8,O=C(OCC(=O)c1ccc(Cl)s1)c1ccc(CO)cc1,-2.65
9,CC1(C)c2ssc(=S)c2-c2ccccc2N1C(=O)c1ccco1,9.15
10,COc1cccc(/C=C2\Sc3ccc(C(=O)NCc4cccnc4)cc3N(C)C2=O)c1,-30.9
11,O=C(Cc1ccc([N+](=O)[O-])cc1)N1CCCCCC1,-21.9
12,O=C(CSc1nnc(-c2ccc(F)cc2)o1)c1ccc2c(c1)OCCO2,-8.06
13,COc1cccc(N2CC(C(=O)Nc3nnc(SCC(=O)NC4CCCC4)s3)CC2=O)c1 (stereo not drawn),14.7
14,CCCNC(=O)COC(=O)CCC(=O)c1cccs1,1.23
15,Cc1ccc(S(=O)(=O)NCC2CCCO2)cc1[N+](=O)[O-] (stereo not drawn),18.3
16,O=C(c1cccc(Br)c1)N1CCN(S(=O)(=O)N2CCCCCC2)CC1,-23.1
17,O=C(CN1CCN(S(=O)(=O)c2ccc(Br)cc2)CC1)Nc1ccc(F)cc1,-67.8
18,CCOC(=O)c1c(-c2ccccc2)csc1NC(=S)NC,-3.27
19,COc1ccc(CCC(C)Nc2ccc(F)c(F)c2)cc1 (stereo not drawn),5.47
20,CN1CCN(C(=S)NC(=O)c2ccc(Br)cc2)CC1,2.05
21,COc1ccc2oc(=O)c(C(=O)NCCc3ccc(OC)c(OC)c3)cc2c1,2.39
